# Out of some 2,000 compounds screened, about 110 (5.5%) showed an effect of 50% or more. The list shows a part of the results.
# Molecular target: Genome polyprotein (dengue virus type 2) (UniProt P29990)
# [1] = Thailand/16681/1984, Concentration 25.0 uM, Number of replicates 1.0
structure (smiles),measurement,setting,value
O=Cc1ccc(N2CCC(C(=O)NCc3cc(F)ccc3Br)CC2)cc1,inhibition,[1],2.51%
CC(=O)N[C@@H](CCCN)C(=O)Nc1cccc(Cc2cccc3c(CO)cc(C)nc23)c1,inhibition,"Thailand/16681/1984, Concentration 49.95 uM, Number of replicates 2.0, Standard deviation 0.3697200155248097 %",-0.745%
same,inhibition,"Thailand/16681/1984, Concentration 99.9 uM, Number of replicates 2.0, Standard deviation 1.751669554233512 %",10.8%
Cc1cc(CO)c2cccc(CC(=O)NCc3ccc(S(N)(=O)=O)cc3)c2n1,inhibition,"Thailand/16681/1984, Concentration 49.95 uM, Number of replicates 2.0, Standard deviation 1.717051818740604 %",21.3%
same,inhibition,"Thailand/16681/1984, Concentration 99.9 uM, Number of replicates 2.0, Standard deviation 5.294472274247832 %",43.7%
O=Cc1ccc(N2CCC(C(=O)N(Cc3ccccc3)Cc3ccc(Br)cc3)CC2)cc1,inhibition,[1],-1.05%
O=Cc1ccc(N2CCC(C(=O)NC[C@H]3CCCN(C4CCCC4)C3)CC2)cc1,inhibition,[1],12%
Cc1cccc(N2CCN(C(=O)C3CCN(c4ccc(C=O)cc4)CC3)C[C@@H]2C)c1,inhibition,[1],13.4%
Cc1cc(OCC(N)=O)c2cccc(C)c2n1,inhibition,"Thailand/16681/1984, Concentration 49.95 uM, Number of replicates 2.0, Standard deviation 5.13228985247876 %",-8.4%
same,inhibition,"Thailand/16681/1984, Concentration 99.9 uM, Number of replicates 2.0, Standard deviation 3.138272547559726 %",-9.88%
COc1c(C)cnc(CN(C)C(=O)C2CCN(c3ccc(C=O)cc3)CC2)c1C,inhibition,[1],14.2%
CC[C@]1(c2ccc(NC(=O)C3CCN(c4ccc(C=O)cc4)CC3)cc2)CCC(=O)NC1=O,inhibition,[1],14.1%
O=C(Nc1ccc(Cl)c2cccnc12)c1ccccc1Cl,inhibition,"Thailand/16681/1984, Concentration 49.95 uM, Number of replicates 2.0, Standard deviation 4.586896145756268 %",-8.93%
same,inhibition,"Thailand/16681/1984, Concentration 99.9 uM, Number of replicates 2.0, Standard deviation 5.569920136705082 %",-8.91%
Cc1nc([C@H]2CCN(C(=O)c3n[nH]cc3[C@H]3CCCNC3)C2)n[nH]1,inhibition,"Thailand/16681/1984, Concentration 49.5 uM, Number of replicates 2.0, Standard deviation 1.1890927459605223 %",-3.25%
same,inhibition,"Thailand/16681/1984, Concentration 99.01 uM, Number of replicates 2.0, Standard deviation 0.25960688515073266 %",-2.2%
same,inhibition,"Thailand/16681/1984, Concentration 198.0 uM, Number of replicates 2.0, Standard deviation 5.490687180371391 %",2.11%
CC(C)(O)CC(=O)Nc1cc(Cl)cc(C(=O)NC(C)(C)CO)c1,inhibition,"Thailand/16681/1984, Concentration 49.5 uM, Number of replicates 2.0, Standard deviation 2.1574883244344782 %",0.623%
same,inhibition,"Thailand/16681/1984, Concentration 99.01 uM, Number of replicates 2.0, Standard deviation 2.49929441897025 %",1.02%
same,inhibition,"Thailand/16681/1984, Concentration 198.0 uM, Number of replicates 2.0, Standard deviation 1.6486810114254136 %",0.898%
O=Cc1ccc(N2CCC(C(=O)NCC(=O)Nc3ccc(F)c(F)c3)CC2)cc1,inhibition,[1],14.1%
O=Cc1ccc(N2CCC(C(=O)Nc3cc(Br)ccc3F)CC2)cc1,inhibition,[1],12.3%
O=Cc1ccc(N2CCC(C(=O)NCC3(c4ccccc4)CCCC3)CC2)cc1,inhibition,[1],0.504%
Cc1nc(-c2ccc(C)c3ncccc23)c[nH]1,inhibition,"Thailand/16681/1984, Concentration 49.95 uM, Number of replicates 2.0, Standard deviation 5.0327534948119155 %",-7.66%
same,inhibition,"Thailand/16681/1984, Concentration 99.9 uM, Number of replicates 2.0, Standard deviation 5.690844839879446 %",-5.4%
O=Cc1ccc(N2CCC(C(=O)N[C@@H]3[C@@H](O)[C@H](O)[C@@H](CO)O[C@H]3O)CC2)cc1,inhibition,[1],10.8%
CC(C)n1c(CNC(=O)C2CCN(c3ccc(C=O)cc3)CC2)nc2ccccc21,inhibition,[1],12.4%
c1ccc2c([C@H]3CCCN(Cc4n[nH]c5ccccc45)C3)c[nH]c2c1,inhibition,"Thailand/16681/1984, Concentration 49.5 uM, Number of replicates 2.0, Standard deviation 2.5740974464975066 %",2.7%
same,inhibition,"Thailand/16681/1984, Concentration 99.01 uM, Number of replicates 2.0, Standard deviation 2.264671553414048 %",5.31%
same,inhibition,"Thailand/16681/1984, Concentration 198.0 uM, Number of replicates 2.0, Standard deviation 2.757654979663667 %",4.66%
Cc1cc(CO)c2cccc(NC(=O)Cc3c[nH]c4ccccc34)c2n1,inhibition,"Thailand/16681/1984, Concentration 49.95 uM, Number of replicates 2.0, Standard deviation 1.6396894238375237 %",1.91%
same,inhibition,"Thailand/16681/1984, Concentration 99.9 uM, Number of replicates 2.0, Standard deviation 1.2235176174746443 %",8.36%
O=Cc1ccc(N2CCC(C(=O)N3CCC4(CC3)CNC(=O)C4)CC2)cc1,inhibition,[1],13.5%
CC(C)(C)c1ccc(CNC(=O)C2CCN(c3ccc(C=O)cc3)CC2)cc1,inhibition,[1],8.12%
COc1c(Cl)cccc1NC(=O)C1CCN(c2ccc(C=O)cc2)CC1,inhibition,[1],13.9%
c1ccc(-c2coc(CNCc3nnc4ccccn34)c2)cc1,inhibition,"Thailand/16681/1984, Concentration 49.5 uM, Number of replicates 2.0, Standard deviation 0.7295248163500376 %",-1.01%
same,inhibition,"Thailand/16681/1984, Concentration 99.01 uM, Number of replicates 2.0, Standard deviation 0.9556922865251056 %",-0.811%
same,inhibition,"Thailand/16681/1984, Concentration 198.0 uM, Number of replicates 2.0, Standard deviation 2.56780972675556 %",0.277%
Cc1nnccc1Cn1cc(C2CCNCC2)c(C)n1,inhibition,"Thailand/16681/1984, Concentration 49.5 uM, Number of replicates 2.0, Standard deviation 1.059758229221688 %",-5.29%
same,inhibition,"Thailand/16681/1984, Concentration 99.01 uM, Number of replicates 2.0, Standard deviation 7.779121042682183 %",2.01%
same,inhibition,"Thailand/16681/1984, Concentration 198.0 uM, Number of replicates 2.0, Standard deviation 1.1444678313445817 %",-3.21%
O=C(NCc1ccc(-c2ncc[nH]2)cc1)[C@@]1(c2ccc(F)cc2)CCCNC1,inhibition,"Thailand/16681/1984, Concentration 49.5 uM, Number of replicates 2.0, Standard deviation 0.5643965406042961 %",-2.16%
same,inhibition,"Thailand/16681/1984, Concentration 99.01 uM, Number of replicates 2.0, Standard deviation 0.22314615226614037 %",-1.83%
same,inhibition,"Thailand/16681/1984, Concentration 198.0 uM, Number of replicates 2.0, Standard deviation 1.098858966940018 %",-1.02%
CCN1CCN(c2ccc(NC(=O)C3CCN(c4ccc(C=O)cc4)CC3)cc2)CC1,inhibition,[1],13.5%
Cc1cnccc1NC(=O)c1ccc2c(c1)COCC2,inhibition,"Thailand/16681/1984, Concentration 49.5 uM, Number of replicates 2.0, Standard deviation 2.5121871293930202 %",-1.99%
same,inhibition,"Thailand/16681/1984, Concentration 99.01 uM, Number of replicates 2.0, Standard deviation 1.8322256055090813 %",-1.68%
same,inhibition,"Thailand/16681/1984, Concentration 198.0 uM, Number of replicates 2.0, Standard deviation 3.8354075529759903 %",-1.51%
CCn1ccnc(N2CCC(c3c[nH]c4ccccc34)CC2)c1=O,inhibition,"Thailand/16681/1984, Concentration 49.5 uM, Number of replicates 2.0, Standard deviation 1.413984957866772 %",10.9%
same,inhibition,"Thailand/16681/1984, Concentration 99.01 uM, Number of replicates 2.0, Standard deviation 1.00361289503378 %",19.7%
same,inhibition,"Thailand/16681/1984, Concentration 198.0 uM, Number of replicates 2.0, Standard deviation 0.25199229832396647 %",25.7%
O=Cc1ccc(N2CCC(C(=O)N3CC4C[C@H]5CC3C[C@H](C4)C5)CC2)cc1,inhibition,[1],14.5%
Cn1nc(CN2CCC(c3c[nH]c4cccnc34)CC2)c2cccnc21,inhibition,"Thailand/16681/1984, Concentration 49.5 uM, Number of replicates 2.0, Standard deviation 4.251865662880804 %",-3.89%
same,inhibition,"Thailand/16681/1984, Concentration 99.01 uM, Number of replicates 2.0, Standard deviation 2.598042672716789 %",-4.7%
same,inhibition,"Thailand/16681/1984, Concentration 198.0 uM, Number of replicates 2.0, Standard deviation 3.0838970438344875 %",-4.39%
O=Cc1ccc(N2CCC(C(=O)Nc3cc(Cl)c(F)c(Cl)c3)CC2)cc1,inhibition,[1],13.1%
O=Cc1ccc(N2CCC(C(=O)N3CCC(N4CCOCC4)CC3)CC2)cc1,inhibition,[1],12.6%
NCc1cccc(NC(=O)[C@]2(NC(=O)OCc3ccccc3)CCc3ccccc32)c1,inhibition,"Thailand/16681/1984, Concentration 49.5 uM, Number of replicates 2.0, Standard deviation 1.8392146277368244 %",-5.75%
same,inhibition,"Thailand/16681/1984, Concentration 99.01 uM, Number of replicates 2.0, Standard deviation 0.17835973092670607 %",-4.69%
same,inhibition,"Thailand/16681/1984, Concentration 198.0 uM, Number of replicates 2.0, Standard deviation 1.909535801540281 %",-3.49%
CCn1ccnc(N2CC[C@H](c3ccn[nH]3)C2)c1=O,inhibition,"Thailand/16681/1984, Concentration 49.5 uM, Number of replicates 2.0, Standard deviation 0.2693433129189313 %",7.79%
same,inhibition,"Thailand/16681/1984, Concentration 99.01 uM, Number of replicates 2.0, Standard deviation 1.1364429028007135 %",16.3%
same,inhibition,"Thailand/16681/1984, Concentration 198.0 uM, Number of replicates 2.0, Standard deviation 0.7874353027004307 %",30.4%
CCn1c(=O)c(N2CC[C@@H](CO)C2)nc2ccccc21,inhibition,"Thailand/16681/1984, Concentration 49.5 uM, Number of replicates 2.0, Standard deviation 0.8446781408235627 %",16.3%
same,inhibition,"Thailand/16681/1984, Concentration 99.01 uM, Number of replicates 2.0, Standard deviation 1.6946189057395897 %",33.2%
same,inhibition,"Thailand/16681/1984, Concentration 198.0 uM, Number of replicates 2.0, Standard deviation 1.3775046688444705 %",53.9%
COc1cc(Cn2cc(C3CCNCC3)c(C)n2)ccn1,inhibition,"Thailand/16681/1984, Concentration 49.5 uM, Number of replicates 2.0, Standard deviation 0.13149513278089658 %",-2.01%
same,inhibition,"Thailand/16681/1984, Concentration 99.01 uM, Number of replicates 2.0, Standard deviation 0.6489689125884381 %",-2.03%
same,inhibition,"Thailand/16681/1984, Concentration 198.0 uM, Number of replicates 2.0, Standard deviation 0.41539689440615796 %",-1.67%
C#CCN(C(=O)C1CCN(c2ccc(C=O)cc2)CC1)[C@@H](C)Cc1ccccc1,inhibition,[1],17.8%
CC1(C)C[C@H](NC(=O)c2ccnc3[nH]ncc23)CN(C(=O)c2cnc[nH]2)C1,inhibition,"Thailand/16681/1984, Concentration 49.5 uM, Number of replicates 2.0, Standard deviation 0.9620790197509161 %",-0.928%
same,inhibition,"Thailand/16681/1984, Concentration 99.01 uM, Number of replicates 2.0, Standard deviation 3.8232647087452136 %",0.073%
same,inhibition,"Thailand/16681/1984, Concentration 198.0 uM, Number of replicates 2.0, Standard deviation 3.196447673971919 %",0.543%
O=Cc1ccc(N2CCC(C(=O)N3CCC(c4cccc(Cl)c4)CC3)CC2)cc1,inhibition,[1],12.1%
N[C@H]1CC[C@@H](NC(=O)[C@@H](NC(=O)OCc2ccccc2)c2ccc(OCc3ccccc3)cc2)C1,inhibition,"Thailand/16681/1984, Concentration 49.5 uM, Number of replicates 2.0, Standard deviation 1.8398540797224316 %",-5.09%
same,inhibition,"Thailand/16681/1984, Concentration 99.01 uM, Number of replicates 2.0, Standard deviation 1.5144593357940743 %",-5.38%
same,inhibition,"Thailand/16681/1984, Concentration 198.0 uM, Number of replicates 2.0, Standard deviation 1.2299788478893758 %",-0.834%
CCCC[C@H](NC(=O)OC(C)(C)C)C(=O)N[C@H](C(=O)NCc1ccc(C(N)=O)cc1)c1ccc(OCc2ccccc2)cc1,inhibition,"Thailand/16681/1984, Concentration 49.5 uM, Number of replicates 2.0, Standard deviation 0.5441055304446053 %",-3.24%
same,inhibition,"Thailand/16681/1984, Concentration 99.01 uM, Number of replicates 2.0, Standard deviation 1.2410372194636528 %",12.6%
same,inhibition,"Thailand/16681/1984, Concentration 198.0 uM, Number of replicates 2.0, Standard deviation 0.08996362825826161 %",97.6%
CC(C)(CO)NC(=O)c1cc(Cl)cc(NC(=O)Cn2cnccc2=O)c1,inhibition,"Thailand/16681/1984, Concentration 49.5 uM, Number of replicates 2.0, Standard deviation 0.3718016272993385 %",-3.9%
same,inhibition,"Thailand/16681/1984, Concentration 99.01 uM, Number of replicates 2.0, Standard deviation 1.0416819516575477 %",-5.97%
same,inhibition,"Thailand/16681/1984, Concentration 198.0 uM, Number of replicates 2.0, Standard deviation 1.29652000519297 %",-5.4%
